Values joined by “and” are separate entries in the source; they are usually repeats but may differ in a detail not shown here. Identical values can stand only once. Out of some 340,000 compounds screened, about 12,000 (3.5%) were called active. The shares of active, inactive and inconclusive entries below differ from those in the screen. Calls follow the shape of the dose curve; as a rule, active = well fitted inhibition curve with a large enough effect; inconclusive = small, poorly fitted or top-dose-only effect, or another doubt; inactive = no such curve, though single readings can be large or run the other way. Potencies beside an inconclusive call are fits to weak or partial responses and may not hold up.
Assay: qHTS Assay for Inhibitors of Hepatitis C Virus (HCV)
Conditions: Huh7.5.1 HCVcc-Cre (HCVcc is cell-culture hepatitis C virus) infection, luciferase reporter, 44 h; activity change, negative = inhibition: at 41.8 µM (top of the series) unless noted
In short: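 HCVcc-Cre virus at an moi near 0.5 was added right after compound to cells cultured 4 h from seeding (1,000 cells/well). Luciferase activity was determined 44 h later, 15 min after substrate addition at RT.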
% is scaled to controls: 0 for no effect and ±100 for the full control effect; potency is read from the fitted curve at half-maximal effect; tags tell the direction and shape of the fitted curve.

Row | Structure (SMILES) | Potency | activity change, negative = inhibition
1 | CCCCn1c(SCc2nc(N)nc(Nc3ccccc3C)n2)nc2ccccc2c1=O | inconclusive: 31.6 µM [inhibitor, single point] | –
2 | COc1cc(C(CC(=O)N2CCCC2)c2c(OC)cc(OC)c3c(-c4ccccc4)cc(=O)oc23)cc(OC)c1OC (centres undefined) | inconclusive: 11.2 µM [inhibitor, partial curve] | –
3 | Cc1ccc(CNc2oc(-c3ccco3)nc2S(=O)(=O)c2ccccc2)cc1 | inconclusive: 31.6 µM [inhibitor, single point] | –
4 | Cc1ccc2c(c1)C(=O)C(=O)N2CCOc1ccccc1 | inconclusive: 11.2 µM [inhibitor, partial curve] | –
5 | Clc1ccc(-c2cc3ccccc3nc2N2CCOCC2)cc1 | inconclusive: 31.6 µM [inhibitor, single point] | –
6 | O=C(NCc1cccnc1)c1ccc(COc2ccccc2Cl)cc1 | inconclusive: 10 µM [inhibitor, partial curve] | –
7 | CN(C)c1nc(C#N)nc(N2CCOCC2)n1 | inconclusive: 20 µM [inhibitor, single point] | –
8 | C=CCn1c(SCC#N)nc2c(c1=O)C(C)(C)Cc1ccccc1-2 | inconclusive: 11.2 µM [inhibitor, single point] | –
9 | Cc1cc(-c2nnc(CCC(=O)NC(C)c3cccc4ccccc34)o2)no1 (centres undefined) | – | inactive: -11.5%
10 | O=C(COc1cc2oc(=O)c3c(c2cc1Cl)CCCC3)NCc1cccnc1 | inconclusive: 11.2 µM [inhibitor, partial curve] | –
11 | O=C(CSc1nc(-c2cccs2)cc(C(F)(F)F)n1)Nc1cc(OCC(F)(F)F)cc([N+](=O)[O-])c1 | inconclusive: 1.26 µM [inhibitor, full curve] | –
12 | S=C(NCCc1ccc(Cl)cc1)NCc1ccccc1 | inconclusive: 25.1 µM [inhibitor, single point] | –
13 | CCN(Cc1ccc(OC)c(F)c1)C(C)C(=O)Nc1ccc(S(=O)(=O)N2CCCC2)cc1 (centres undefined) | inconclusive: 8.91 µM [inhibitor, partial curve] | –
14 | O=C(NCCc1ccc2c(c1)OCCO2)c1ccccn1 | – | inactive: -7.26%
15 | CCCCNC(=O)/C=C/c1cccs1 | – | inactive: 5.57%
16 | NC(=O)Cc1nc(-c2ccc(Br)cc2)cs1 | – | inactive: 3.51%
17 | CCOCCCNC(=O)/C(C#N)=C/c1ccc(-c2ccc(S(=O)(=O)N3CCOCC3)cc2)o1 | inconclusive: 8.91 µM [inhibitor, partial curve] | –
18 | O=C1COc2ccc(C(=O)COC(=O)CCSc3ccc(Cl)cc3)cc2N1 | – | inactive: 3.14%
19 | Cc1ccc(N2C(=O)CCC2(C#N)c2ccccc2)cc1 (centres undefined) | inconclusive: 3.98 µM [inhibitor, single point] | –
20 | COc1cccc(CNC2CCCCCCC2)c1OC | – | inactive: 2.33%
21 | CCCc1nnc(SCC(=O)Nc2ccc(C(=O)OCC)cc2)o1 | – | inactive: 10.9%
22 | COc1cc(C(=O)O/N=C2\C=CC(=O)C=C2C)cc(OC)c1OC | – | inactive: -0.54%
23 | Clc1ccccc1OCc1nc(-c2ccccn2)no1 | inconclusive: 10 µM [inhibitor, partial curve] | –
24 | CCOc1c(Br)cc(C(N)=O)cc1OCc1ccccc1 | – | inconclusive: -55.8% [inhibitor]
25 | CNC(=O)NC(=O)C(C)OC(=O)c1c2c(nc3ccccc13)/C(=C/c1cccs1)CC2 (centres undefined) | active: 2.82 µM | –

Row | Structure (SMILES) | Potency | activity change, negative = inhibition
26 | COCC(C)N1CCC(n2nccc2NC(=O)CCCc2ccccc2)CC1 (centres undefined) | inconclusive: 31.6 µM [inhibitor, single point] | –
27 | O=C(c1ccc2noc(-c3ccccc3)c2c1)N1CCN(c2ccccc2)CC1 | inconclusive: 31.6 µM [inhibitor, single point] | –
28 | Cn1nnnc1SCc1cccc2ccccc12 | – | inactive: -0.0423%
29 | CCOC(=O)c1c(NC(=O)c2nn(CC)cc2Br)c(C#N)cn1-c1ccccc1 | inconclusive: 7.94 µM [inhibitor, partial curve] and inconclusive: 5.62 µM [inhibitor, single point] | –
30 | C=C(c1ccccc1C)[n+]1ccccc1 | inconclusive: 31.6 µM [inhibitor, single point] | –
31 | Cc1ccsc1/C=N/NC(=O)c1ccc2ccccc2c1 | inconclusive: 11.2 µM [inhibitor, partial curve] | –
32 | CCS(=O)(=O)n1nc(-c2ccc(OC)cc2)nc1SC | inconclusive: 31.6 µM [inhibitor, single point] | –
33 | CCCOc1cccc(OCCSc2nc(C)cc(=O)[nH]2)c1 | – | inactive: -3.43%
34 | COc1ccccc1C(=O)NC1CCCCCCC1 | – | inactive: -12.6%
35 | CN(CC(=O)Nc1ccccc1Br)c1ncnc2sccc12 | inconclusive: 11.2 µM [inhibitor, single point] | –
36 | COc1ccc(C(=O)Cn2nnc(-c3ccccc3F)n2)cc1 | inconclusive: 31.6 µM [inhibitor, single point] | –
37 | CCN(CC)S(=O)(=O)c1ccc(OCC2CCCCO2)c([N+](=O)[O-])c1 (centres undefined) | – | inactive: -4.64%
38 | CC1(C)Nc2ccc(O)cc2-c2c1ssc2=S | inconclusive: 12.6 µM [inhibitor, single point] | –
39 | O=C1CC[C@H](O)CCN1[C@H](CSc1ccccc1)Cc1ccccc1 | inconclusive: 2.24 µM [inhibitor, partial curve] | –
40 | O=S(=O)(Nc1ccc(-c2csc(-c3ccccc3)n2)cc1)c1ccccc1 | inconclusive: 28.2 µM [inhibitor, partial curve] | –
41 | CCCC(=O)NC(c1ccccc1)c1ccc2cccnc2c1O (centres undefined) | active: 2.82 µM | –
42 | c1ccc(Sc2ncnc3ccccc23)cc1 | – | inactive: 21.3%
43 | O=C(CSc1ccncc1)Nc1ccc2ccccc2c1 | inconclusive: 31.6 µM [inhibitor, single point] | –
44 | COc1ccc(Cl)cc1NC(=O)COC(=O)c1c(-c2ccccc2)noc1C | active: 3.98 µM | –
45 | C#CCO[C@@H]1C[C@H](n2cnc3c(NC(=O)c4ccccc4)ncnc32)O[C@@H]1CO | – | inactive: 28.7%
46 | COc1ccc(CNC(=O)c2ccc3ccccc3n2)cc1OC | active: 10 µM | –
47 | CCN(CC)S(=O)(=O)c1ccc(NC(=O)c2ccc(CN3CCOCC3)cc2)cc1 | inconclusive: 1.12 µM [inhibitor, full curve] | –
48 | O=C(NCCN1C(=O)S/C(=C\c2ccc(OC(F)F)cc2)C1=O)[C@@H]1CCCN1C(=O)c1cccs1 | inconclusive: 3.16 µM [inhibitor, partial curve] | –
49 | COc1cccc(/C=N/n2c(-c3ccco3)nc3ccccc3c2=O)c1 | inconclusive: 22.4 µM [inhibitor, single point] | –
50 | Cc1ccc2c(CN3CCCCC3C)cc(=O)oc2c1 (centres undefined) | – | inactive: -2%

Row | Structure (SMILES) | Potency | activity change, negative = inhibition
51 | CC(C)CC(=O)N1CCN(Cc2ccc(C(F)(F)F)cc2)CC1 | inconclusive: 22.4 µM [inhibitor, single point] | –
52 | Cn1c(=O)c2c(SCc3ccccn3)nc(CC(C)(C)C)nc2n(C)c1=O | inconclusive: 10 µM [inhibitor, partial curve] | –
53 | CCOc1ccc(S(=O)(=O)Nc2ccccn2)c2ccccc12 | – | inactive: 19.5%
54 | COc1ccc(C(CNC(=O)c2ccc(S(=O)(=O)N3CC(C)CC(C)C3)cc2)N(C)C)cc1 (centres undefined) | inconclusive: 31.6 µM [inhibitor, single point] | –
55 | CCOc1ccc(NC(=O)N(CCN2CCOCC2)Cc2ccc3c(c2)CCCN3CC)cc1 | – | inactive: 7.2%
56 | CC(C)[C@H](NC(=O)c1ccccc1F)C(=O)OCCN1C(=O)c2ccccc2C1=O | – | inactive: 26.5%
57 | CCNc1nc(OC)nc(N(OC)S(=O)(=O)c2ccc(C)cc2)n1 | – | inactive: -6.7%
58 | CC1(c2ccc3noc(-c4cccc(F)c4)c3c2)OCCO1 | inconclusive: 11.2 µM [inhibitor, single point] | –
59 | CC(=O)N1N=C(c2c(-c3ccccc3)c3cc(Br)ccc3[nH]c2=O)CC1c1ccco1 (centres undefined) | inconclusive: 11.2 µM [inhibitor, partial curve] | –
60 | CC(C)c1ccc2c(c1)C1Cc3ccccc3C1N2 (centres undefined) | inconclusive: 14.1 µM [inhibitor, single point] | –
61 | Cn1c(=O)c([N+](=O)[O-])c(NCc2ccccc2Cl)c2ccccc21 | inconclusive: 31.6 µM [inhibitor, single point] | –
62 | CC(C)(CNCc1ccccc1)NS(=O)(=O)c1ccc(Cl)cc1 | – | inactive: 13.6%
63 | NC(=O)c1ccc[n+](CC(=O)c2ccccc2)c1 | active: 0.562 µM | –
64 | CC(C)NS(=O)(=O)c1ccc(Br)c(C(=O)OC(C)C(=O)NC2CCCCC2C)c1 (centres undefined) | inconclusive: 3.98 µM [inhibitor, single point] | –
65 | CCc1ccc(/C(C)=N\Nc2ccc([N+](=O)[O-])cc2)cc1 | – | inactive: -16.1%
66 | COC(=O)C1=C(CSCc2ccccc2)NC(=O)NC1c1cc(C)ccc1C (centres undefined) | inconclusive: 31.6 µM [inhibitor, single point] | –
67 | O=C(NCc1ccccc1)c1ccc2c(c1)OCCO2 | – | inactive: 19.9%
68 | Cc1c(C(=O)/C=C/N(C)C)nnn1-c1ccc(Cl)c(Cl)c1 | inconclusive: 11.2 µM [inhibitor, single point] | –
69 | Cc1cc(C)n2nc(SCC(=O)c3c(N)n(CC(C)C)c(=O)n(C)c3=O)nc2n1 | – | inactive: -1.16%
70 | CCN1c2ccccc2-c2nc3ccccc3n2C1c1cccnc1 (centres undefined) | inconclusive: 11.2 µM [inhibitor, partial curve] | –
71 | CCn1c(=O)cc(SCC(=O)Nc2cc(OC)c(OC)c(OC)c2)c2ccccc21 | inconclusive: 0.398 µM [inhibitor, full curve, poor fit] | –
72 | Cc1ccc(NC(=O)C2CC(=O)N(Cc3ccccc3)C2)nc1 (centres undefined) | – | inactive: -13%
73 | CCn1cc([N+](=O)[O-])c(C(=O)Nc2ccn(Cc3ccccc3)n2)n1 | – | inactive: 3.17%
74 | N#Cc1ccc(-c2ccc(OCC(O)CN3CCCCC3)cc2)cc1 (centres undefined) | inconclusive: 12.6 µM [inhibitor, single point] | –

From PubChem BioAssay AID651820 (National Center for Advancing Translational Sciences (NCATS), 2012)
